# “And” between values parts separate entries of the source, which are not always exact repeats. Equal entries are not always repeated. The campaign covered roughly 16,000 compounds. About 260 (1.6%) were called active. Inconclusive means that the source gave no clear call. Such entries were picked first, then a sample of the others. Calls follow the shape of the dose curve; as a rule, active = well fitted inhibition curve with a large enough effect; inconclusive = small, poorly fitted or top-dose-only effect; inactive = no such curve, though single readings can be large or run the other way. Potencies beside an inconclusive call are fits to weak or partial responses and may not hold up. More than one record can exist for a structure, and the calls need not agree.
# Target: Rap guanine nucleotide exchange factor 4 (Homo sapiens) (UniProt Q8WZA2)
# Test: Validation qHTS for antagonist of cAMP-regulated guanine nucleotide exchange factor 4 (EPAC2); also: nearly all actives have a fitted effect of over 40% in size
# Details: EPAC2 Rap1B BODIPY-GDP exchange, fluorescence; activity, negative = inhibition: at 112 µM (top of the series)
# In short: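 Normalized against a 6.5 mM cAMP agonist control, compounds were tested on 100 nM EPAC2 exchanging Rap1B-bound BODIPY-GDP (250 nM) for 50 uM GDP. Fluorescence drop (ex 480, em 540 nm) was tracked at room temperature over 30 min at 5-min intervals.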
# Potency is read from the fitted curve at half-maximal effect; tags tell the direction and shape of the fitted curve.
Structure (SMILES),Potency,"activity, negative = inhibition"
CCOC(=O)[C@]12Cc3cc(C)ccc3[C@H]1N(Cc1ccccc1)C(=O)c1ccccc12,"inconclusive: 15.8 µM [inhibitor, full curve, poor fit]",
CC[C@@H](CO)NC(=O)[C@H]1C=C2c3cccc4c3c(cn4C)C[C@H]2N(C)C1,,inactive: -11.7%
NCCCC[C@H](NC(=O)[C@H](Cc1ccccc1)NC(=O)[C@H](CCCN=C(N)N)NC(=O)[C@@H](N)Cc1ccc(O)cc1)C(N)=O,,inactive: -0.663% [at 11.4 µM]
C#CCN1C(C)=C(C(=O)CCO)[C@@H](c2cccc(-n3oo3)c2)C(C(=O)OC)=C1C,active: 20 µM,
Cc1nccc2c1[nH]c1ccccc12,"inconclusive: 44.7 µM [inhibitor, full curve] and inconclusive: 100 µM [inhibitor, partial curve, poor fit]",
CCCN1CCc2cccc3c2[C@H]1Cc1ccc(O)c(O)c1-3,"inconclusive: 89.1 µM [inhibitor, single point]",
CCCCCCCCc1ccc(O)cc1,active: 35.5 µM,
C[C@]12C=CC(=O)C=C1CC[C@@H]1[C@@H]2CC[C@]2(C)OC(=O)CC[C@@H]12,,inactive: -5.28%
CC(C)(Cc1c[nH]c2ccc(Cl)cc12)NCCOc1ccccc1OCC1CC1,"inconclusive: 44.7 µM [inhibitor, partial curve]",
CCCN(CCC)C1CCc2cccc(O)c2C1 (configuration not stated),"inconclusive: 28.2 µM [inhibitor, single point]",
c1cc(CN2CC3(CCNCC3)C2)ccn1,"inconclusive: 100 µM [inhibitor, partial curve, poor fit]",
CC(C)CCCC1(C)C=Cc2c(O)c3c(c(CCC(C)C)c2O1)OC12C(CC4CC1C(C)(C)OC2(CCC(C)C(=O)O)C4O)C3=O (configuration not stated),"inconclusive: 56.2 µM [inhibitor, partial curve, poor fit]",
CCCC(=O)OC(C(Cl)(Cl)Cl)P(=O)(OC)OC (configuration not stated),"inconclusive: 0.501 µM [inhibitor, full curve, poor fit]",
CC[C@H](C)[C@H]1O[C@]2(C=C[C@@H]1C)C[C@@H]1C[C@@H](C/C=C(\C)[C@@H](O[C@H]3C[C@H](OC)[C@@H](O[C@H]4C[C@H](OC)[C@@H](O)[C@H](C)O4)[C@H](C)O3)[C@@H](C)/C=C/C=C3\CO[C@@H]4[C@H](O)C(C)=C[C@@H](C(=O)O1)[C@]34O)O2,"inconclusive: 35.5 µM [inhibitor, partial curve]",
O=c1oc2ccccc2c(O)c1C(c1ccccc1O)c1c(O)c2ccccc2oc1=O,"inconclusive: 28.2 µM [inhibitor, full curve]",
CCOC(=O)[C@]12Cc3c(cc(OC)c(OC)c3OC)[C@H]1N(Cc1ccccc1)C(=O)c1ccccc12,"inconclusive: 7.08 µM [inhibitor, full curve, poor fit]",
Oc1ccc2c3c1O[C@H]1c4c(c5ccccc5n4Cc4ccccc4)C[C@]4(O)[C@H](C2)N(CC2CC2)CC[C@@]314,"inconclusive: 50.1 µM [inhibitor, partial curve]",
CC(C)=CCN1CC[C@@]2(C)c3cc(O)ccc3C[C@@H]1[C@@H]2C,,inactive: 16.2% [at 239 µM]
CN(N=O)c1cc(O)ccc1O,"inconclusive: 89.1 µM [inhibitor, single point]",

Structure (SMILES),Potency,"activity, negative = inhibition"
CCC(=O)O[C@H]1[C@@H](N2CCCCC2)C[C@H]2[C@@H]3CC[C@H]4C[C@H](OC(C)=O)[C@@H](N5CCCCC5)C[C@]4(C)[C@H]3CC[C@@]21C,,inactive: -13.5%
Oc1cc(Cl)ccc1Oc1ccc(Cl)cc1Cl,"inconclusive: 79.4 µM [inhibitor, partial curve]",
CCCOc1ccc2[nH]cc(C3=CCNCC3)c2n1,,inactive: -18.2%
COc1ccc(Cc2nccc3cc(OC)c(OC)cc23)cc1OC,"inconclusive: 56.2 µM [inhibitor, partial curve, poor fit]",
O=C1CSC(c2ccccc2Cl)c2cc(Cl)ccc2N1 (configuration not stated),"inconclusive: 39.8 µM [inhibitor, partial curve, poor fit]",
CCCC[C@H]1C(=O)O[C@H](C)[C@H](NC(=O)c2cccc(NC=O)c2OC)C(=O)O[C@@H](C)[C@@H]1OC(=O)CC(C)C,"inconclusive: 25.1 µM [inhibitor, full curve]",
O=C(N/N=C/c1ccc([N+](=O)[O-])o1)c1cc([N+](=O)[O-])cc([N+](=O)[O-])c1O,"inconclusive: 63.1 µM [inhibitor, single point]",
C=C(C)CN1CC[C@@]23c4c5ccc(O)c4O[C@H]2c2[nH]c4ccccc4c2C[C@]3(O)[C@@H]1C5,"inconclusive: 50.1 µM [inhibitor, partial curve]",
Fc1ccc(C(OCCN2CCN(CCCc3ccccc3)CC2)c2ccc(F)cc2)cc1,"inconclusive: 70.8 µM [inhibitor, partial curve, poor fit]",
CC(C)[C@@]1(NC(=O)[C@H]2CC3c4cccc5[nH]cc(c45)C[C@H]3N(C)C2)O[C@@]2(O)C3CCCN3C(=O)[C@@H](Cc3ccccc3)N2C1=O (some centres not stated),,inconclusive: -32.7% [inhibitor]
C=C(C)[C@H]1Cc2c(ccc3c2O[C@@H]2COc4cc(OC)c(OC)cc4[C@@H]2C3=O)O1,"inconclusive: 56.2 µM [inhibitor, partial curve] and inconclusive: 1 µM [inhibitor, full curve, poor fit] and inconclusive: 56.2 µM [inhibitor, partial curve, poor fit]",
O=C(NC(=O)c1c(F)cccc1F)Nc1cc(Cl)c(OC(F)(F)C(F)C(F)(F)F)cc1Cl (configuration not stated),"inconclusive: 3.98 µM [inhibitor, partial curve, poor fit]",
c1ccc(N2CCN(c3ccccc3)CC2)cc1,"inconclusive: 44.7 µM [inhibitor, partial curve, poor fit]",
CCCCCCC(=O)O[C@H]1CC[C@H]2[C@@H]3CC[C@H]4CC(=O)C=C(C)[C@]4(C)[C@H]3CC[C@]12C,,inactive: -7.88%
Clc1ccc(CSC(Cn2ccnc2)c2ccc(Cl)cc2Cl)cc1 (configuration not stated),active: 44.7 µM,
N#C/C(=C/c1ccc(O)c(O)c1)C(N)=S,,inactive: -23.7%
CC[C@@]1(O)C(=O)OCc2c1cc1n(c2=O)Cc2cc3ccccc3nc2-1,"inconclusive: 39.8 µM [inhibitor, single point]",
O=c1[nH]cc(N(CCCl)CCCl)c(=O)[nH]1,active: 70.8 µM,
C[C@]12CC[C@H](OS(=O)(=O)O)CC1=CC[C@@H]1[C@@H]2CC[C@]2(C)C(=O)CC[C@@H]12,"inconclusive: 89.1 µM [inhibitor, partial curve, poor fit]",

Structure (SMILES),Potency,"activity, negative = inhibition"
COP(=S)(OC)Oc1ccc([N+](=O)[O-])cc1,"inconclusive: 56.2 µM [inhibitor, partial curve, poor fit]",
CCCN(C/C=C/I)C1CCc2ccc(O)cc2C1 (configuration not stated),"inconclusive: 63.1 µM [inhibitor, partial curve, poor fit]",
Cc1c(C(=O)c2cccc3ccccc23)c2cccc3c2n1[C@H](CN1CCOCC1)CO3,inactive,
C[C@@H](N)C(=O)c1ccccc1,,inactive: 19.2% [at 239 µM]
Clc1ccc(CO/N=C(\Cn2ccnc2)c2ccc(Cl)cc2Cl)c(Cl)c1,"inconclusive: 50.1 µM [inhibitor, partial curve]",
O=C1NCN(c2ccccc2)C12CCN(CC1COc3ccccc3O1)CC2 (configuration not stated),"inconclusive: 100 µM [inhibitor, single point]",
CN1[C@H]2CC[C@@H]1[C@@H](C(=O)O)[C@@H](OC(=O)c1ccccc1)C2,"inconclusive: 112 µM [inhibitor, single point]",
COc1ccc2c3c1O[C@H]1[C@@H](O)C=C[C@H]4[C@@H](C2)N(C)CC[C@@]341,,inactive: -0.382% [at 239 µM]
Oc1ccc(Cl)cc1Cc1ccccc1,"inconclusive: 39.8 µM [inhibitor, partial curve, poor fit] and inconclusive: 50.1 µM [inhibitor, partial curve, poor fit]",
NC1(c2ccccc2)CCCCC1,"inconclusive: 5.62 µM [inhibitor, partial curve, poor fit]",
CN1C(=S)CN=C(c2ccccc2)c2cc(Cl)ccc21,"inconclusive: 44.7 µM [inhibitor, partial curve]",
CCCCCl,"inconclusive: 15.8 µM [inhibitor, partial curve]",
CCCCOC(=O)c1ccccc1C(=O)OCc1ccccc1,"inconclusive: 6.31 µM [inhibitor, full curve]",
C[C@@H]1C[C@@H](O)[C@@]2(O)[C@]13CC(=O)OC[C@]2(C)[C@@](C)(O)C(=O)C3,,inactive: 3.29%
CC(C)[C@@]1(NC(=O)[C@@H]2C[C@@H]3c4cccc5[nH]cc(c45)C[C@H]3N(C)C2)O[C@@]2(O)[C@@H]3CCCN3C(=O)[C@H](Cc3ccccc3)N2C1=O,"inconclusive: 44.7 µM [inhibitor, partial curve, poor fit]",
Cc1ccc2c(c1)C1CN(C)CCC1N2 (configuration not stated),,inactive: -5.09%
ClC1=C(Cl)C2(Cl)C3C(Cl)C=CC3C1(Cl)C2(Cl)Cl (configuration not stated),"inconclusive: 35.5 µM [inhibitor, partial curve, poor fit]",
CC(C)[C@@]1(NC(=O)[C@@H]2C[C@H]3c4cccc5[nH]cc(c45)C[C@@H]3N(C)C2)O[C@@]2(O)[C@H]3CCCN3C(=O)[C@H](Cc3ccccc3)N2C1=O,"inconclusive: 79.4 µM [inhibitor, partial curve, poor fit]",
NC(=O)CN1CC(O)CC1=O (configuration not stated),"inconclusive: 89.1 µM [inhibitor, single point]",
